Data published in the supplement of paper PMC12217912.
This is one part of the list. Sequences were assembled here from the parent chain. Inactive controls read about 0.05.

B1: TEV protease; numbered along this chain (parent)
chain: MGESLFKGPRDYNPISSSICHLTNESDGHTTSLYGIGFGPFIITNKHLFRRNNGTLVVQSLHGVFKVKDTTTLQQHLVDGRDMIIIRMPKDFPPFPQKLKFREPQREERICLVTTNFQTKSMSSMVSDTSCTFPSGDGIFWKHWIQTKDGQCGSPLVSTRDGFIVGIHSASNFTNTNNYFTSVPKNFMELLTNQEAQQWVSGWRLNADSVLWGGHKVFMVKPEEPFQPVKEATQL

Variants of: B1
Test: raw area under fraction-flipped curve 0-4 h after induction (AUC4h, not background-subtracted), DNA-recorder readout of cleavage of the substrate (dimensionless); higher = more cleavage of the substrate by the protease variant
Details: temperature: 34 °C; time window: 0-4 h after rhamnose induction
Experimental: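 In vivo DNA recorder in E. coli TOP10(DE3) ΔrhaA at 34 °C. Each TEVp single-site mutant (parent TEVp 0) is paired with a single-site variant of the 7-mer TEVs (canonical ENLYFQ|S). The substrate sits between flexible linkers in a Bxb1-sfGFP-TEVs-SsrA fusion, so cleavage stabilises Bxb1 and speeds flipping of a recombination array, read by NGS. The value is the raw area under the fraction-flipped curve over 0-4 h after rhamnose induction (AUC4h), with ≥20 reads per time point. It is not background-subtracted; inactive controls average about 0.047.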
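Also: Bxb1 expression induced with 0.2% (w/v) L-rhamnose at OD600 near 0.5, cultures sampled hourly, flipped fraction per protease–substrate barcode pair counted by paired-end Illumina sequencing.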

Variant | area with substrate ENLYFAS | area with substrate ENLYFDS | area with substrate ENLYFES | area with substrate ENLYFFS | area with substrate ENLYFGS | area with substrate ENLYFIS | area with substrate ENLYFLS | area with substrate ENLYFMS | area with substrate ENLYFNS | area with substrate ENLYFPS | area with substrate ENLYFSS | area with substrate ENLYFTS | area with substrate ENLYFWS | area with substrate ENLYFCS | area with substrate ENLYFHS | area with substrate ENLYFKS | area with substrate ENLYFRS | area with substrate ENLYFVS | area with substrate ENLYFYS
MGESLFKGPRDYNPISSSICHLTNESDGHTTSLYGIGFGPFIITNKHLFRRNNGTLVVQSLHGVFKVKDTTTLQQHLVDGRDMIIIRMPKDFPPFPQKLKFREPQREERICLVTTNFQTKSMSSMVSDTSCTFPSGDGIFWKHWIQTKDGQCGSPLVSTRDGFIVGIHSASNFTNTNNYFTSVPKNFMELLTNQEAQQWVSGWRGNADSVLWGGHKVFMVKPEEPFQPVKEATQL [L205G] | 0.0514 | 0.0399 | 0.0555 | 0.0687 | 0.0419 | 0.0542 | 0.0668 | 0.067 | 0.0557 | 0.0545 | 0.0675 | 0.0665 | 0.0592 |  |  |  |  |  | 
MGESLFKGPRDYNPISSSICHLTNESDGHTTSLYGIGFGPFIITNKHLFRRNNGTLVVQSLHGVFKVKDTTTLQQHLVDGRDMIIIRMPKDFPPFPQKLKFREPQREERICLVTTNFQTKSMSSMVSDTSCTFPSGDGIFWKHWIQTKDGQCGSPLVSTRDGFIVGIHSASNFTNTNNYFTSVPKNFMELLTNQEAQQWVSGWRMNADSVLWGGHKVFMVKPEEPFQPVKEATQL [L205M] | 0.0597 | 0.0191 | 0.0335 | 0.0627 | 0.049 | 0.0568 | 0.0653 | 0.0873 | 0.076 | 0.0541 | 0.0639 | 0.0587 | 0.0555 | 0.0623 | 0.0624 | 0.0618 | 0.0512 | 0.0454 | 0.0541
MGESLFKGPRDYNPISSSICHLTNESDGHTTSLYGIGFGPFIITNKHLFRRNNGTLVVQSLHGVFKVKDTTTLQQHLVDGRDMIIIRMPKDFPPFPQKLKFREPQREERICLVTTNFQTKSMSSMVSDTSCTFPSGDGIFWKHWIQTKDGQCGSPLVSTRDGFIVGIHSASNFTNTNNYFTSVPKNFMELLTNQEAQQEVSGWRLNADSVLWGGHKVFMVKPEEPFQPVKEATQL [W199E] | 0.0493 |  | 0.0677 | 0.0772 | 0.0646 | 0.0586 |  | 0.0566 |  | 0.0642 | 0.0671 | 0.0718 | 0.0525 | 0.0596 | 0.0541 | 0.0859 | 0.0676 | 0.0561 | 
MGESLFKGPRDYNPISSSICHLTNESDGHTTSLYGIGFGPFIITNKHLFRRNNGTLVVQSLHGVFKVKDTTTLQQHLVDGRDMIIIRMPKDFPPFPQKLKFREPQREERICLVTTNFQTKSMSSMVSDTSCTFPSGDGIFWKHWIQTKDGQCGSPLVSTRDGFIVGIHSASNFTNTNNYFTSVPKNFMELLTNQEAQQNVSGWRLNADSVLWGGHKVFMVKPEEPFQPVKEATQL [W199N] | 0.0599 | 0.0507 | 0.0545 | 0.0673 |  | 0.0579 |  | 0.0551 |  | 0.0704 |  | 0.055 | 0.057 | 0.0674 |  | 0.0687 |  |  | 
MGESLFKGPRDYNPISSSICHLTNESDGHTTSLYGIGFGPFIITNKHLFRRNNGTLVVQSLHGVFKVKDTTTLQQHLVDGRDMIIIRMPKDFPPFPQKLKFREPQREERICLVTTNFQTKSMSSMVSDTSCTFPSGDGIFWKHWIQTKDGQCGSPLVSTRDGFIVGIHSASNFTNTNNYFTSVPKNFMELLTNQEAQQWVRGWRLNADSVLWGGHKVFMVKPEEPFQPVKEATQL [S201R] | 0.0566 |  | 0.0533 |  |  | 0.0631 |  |  | 0.0265 | 0.0549 | 0.0876 | 0.0519 |  | 0.0719 | 0.109 | 0.0697 | 0.0625 |  | 0.0228
MGESLFKGPRDYNPISSSICHLTNESDGHTTSLYGIGFGPFIITNKHLFRRNNGTLVVQSLHGVFKVKDTTTLQQHLVDGRDMIIIRMPKDFPPFPQKLKFREPQREERICLVTTNFQTKSMSSMVSDTSCTFPSGDGIFWKHWIQTKDGQCGSPLVSTRDGFIVGIHSASNFTNTNNYFTSVPKNFMELLTNQEAQQWVSGGRLNADSVLWGGHKVFMVKPEEPFQPVKEATQL [W203G] | 0.0471 | 0.0667 | 0.0649 | 0.0682 |  | 0.0494 | 0.0533 | 0.0657 | 0.0549 | 0.0737 |  | 0.0486 | 0.0413 | 0.0523 | 0.061 | 0.0551 | 0.0459 | 0.0491 | 
MGESLFKGPRDYNPISSSICHLTNESDGHTTSLYGIGFGPFIITNKHLFRRNNGTLVVQSLHGVFKVKDTTTLQQHLVDGRDMIIIRMPKDFPPFPQKLKFREPQREERICLVTTNFQTKSMSSMVSDTSCTFPSGDGIFWKHWIQTKDGQCGSPLVSTRDGFIVGIHSASNFTNTNNYFTSVPKNFMELLTNQEAQQWVSGWFLNADSVLWGGHKVFMVKPEEPFQPVKEATQL [R204F] | 0.066 | 0.0558 | 0.074 | 0.0852 | 0.0641 | 0.0544 | 0.0638 | 0.0676 | 0.0637 | 0.0642 | 0.0482 | 0.0587 | 0.0529 | 0.0617 | 0.0613 | 0.0589 | 0.0609 | 0.0646 | 0.057
MGESLFKGPRDYNPISSSICHLTNESDGHTTSLYGIGFGPFIITNKHLFRRNNGTLVVQSLHGVFKVKDTTTLQQHLVDGRDMIIIRMPKDFPPFPQKLKFREPQREERICLVTTNFQTKSMSSMVSDTSCTFPSGDGIFWKHWIQTKDGQCGSPLVSTRDGFIVGIHSASNFTNTNNYFTSVPKNFMELLTNQEAQQWVSGWLLNADSVLWGGHKVFMVKPEEPFQPVKEATQL [R204L] | 0.0479 | 0.0545 | 0.0699 | 0.0633 | 0.0563 | 0.054 | 0.0555 | 0.0611 | 0.0573 | 0.0591 | 0.0489 | 0.0949 | 0.064 | 0.0518 | 0.0542 | 0.0584 | 0.0728 | 0.0467 | 0.054
MGESLFKGPRDYNPISSSICHLTNESDGHTTSLYGIGFGPFIITNKHLFRRNNGTLVVQSLHGVFKVKDTTTLQQHLVDGRDMIIIRMPKDFPPFPQKLKFREPQREERICLVTTNFQTKSMSSMVSDTSCTFPSGDGIFWKHWIQTKDGQCGSPLVSTRDGFIVGIHSASNFTNTNNYFTSVPKNFMELLTNQEAQQWVSGWRLNADVVLWGGHKVFMVKPEEPFQPVKEATQL [S209V] | 0.032 | 0.102 | 0.0562 | 0.0967 |  | 0.0531 |  | 0.0714 |  | 0.0624 | 0.0708 | 0.0759 | 0.0582 |  |  | 0.0608 | 0.0631 | 0.068 | 0.059
